Results from article PMC4160250.
These are yes or no findings as the source states them, for the method shown. Sequences can lack the tags named with a protein.

By UniProt entry, the sequences of proteins in these tests, tags left out.
UniProt Q8WUN7: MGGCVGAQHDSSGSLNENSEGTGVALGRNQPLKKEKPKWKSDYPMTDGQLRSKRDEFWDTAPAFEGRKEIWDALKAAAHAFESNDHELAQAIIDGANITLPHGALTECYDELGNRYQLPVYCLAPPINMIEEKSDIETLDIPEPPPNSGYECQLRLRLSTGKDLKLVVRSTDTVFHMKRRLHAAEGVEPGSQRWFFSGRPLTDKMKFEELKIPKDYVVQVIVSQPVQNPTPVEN

Biological target: His-tagged DC-UbP (human) (UniProt Q8WUN7)
Assay: NMR titration; 15N-labelled DC-UbP (100 uM) titrated stepwise with unlabelled USP5, UbE1, FH or SCCH; 1H-15N HSQC, 20 mM phosphate, 50 mM NaCl, pH 6.5, 298 K; both purified

B1: FH fragment of UbE1 (FCCH+AD, residues 1-439) (domain or fragment, UniProt Q02053 1-439)
chain: MSSSPLSKKRRVSGPDPKPGSNCSPAQSALSEVSSVPTNGMAKNGSEADIDESLYSRQLYVLGHEAMKMLQTSSVLVSGLRGLGVEIAKNIILGGVKAVTLHDQGTTQWADLSSQFYLREEDIGKNRAEVSQPRLAELNSYVPVTAYTGPLVEDFLSSFQVVVLTNSPLEAQLRVGEFCHSRGIKLVVADTRGLFGQLFCDFGEEMVLTDSNGEQPLSAMVSMVTKDNPGVVTCLDEARHGFETGDFVSFSEVQGMIQLNGCQPMEIKVLGPYTFSICDTSNFSDYIRGGIVSQVKVPKKISFKSLPASLVEPDFVMTDFAKYSRPAQLHIGFQALHQFCALHNQPPRPRNEEDATELVGLAQAVNARSPPSVKQNSLDEDLIRKLAYVAAGDLAPINAFIGGLAAQEVMKACSGKFMPIMQWLYFDALECLPEDKEAL
Question: B1 was tested. Which binding did it give?
Answer: The binding was “no binding”.

B2: SCCH fragment of UbE1 (residues 622-891) (domain or fragment, UniProt Q02053 622-891)
chain: QDPPEKSIPICTLKNFPNAIEHTLQWARDEFEGLFKQPAENVNQYLTDSKFVERTLRLAGTQPLEVLEAVQRSLVLQRPQTWGDCVTWACHHWHTQYCNNIRQLLHNFPPDQLTSSGAPFWSGPKRCPHPLTFDVNNTLHLDYVMAAANLFAQTYGLTGSQDRAAVASLLQSVQVPEFTPKSGVKIHVSDQELQSANASVDDSRLEELKATLPSPDKLPGFKMYPIDFEKDDDSNFHMDFIVAASNLRAENYDISPADRHKSKLIAGKII
Question: How did the binding turn out when B2 was run?
Answer: Its binding is “no binding”.
